Hit rate of the full screen: of about 310,000 compounds, about 18,000 (5.8%) were called active. Inconclusive results, whose numbers are uncertain, are shown with a selection of clear calls. Calls come from the whole dose curve; as a rule, active = well fitted inhibition curve with a large enough effect; inconclusive = small, poorly fitted or top-dose-only effect, or another doubt; inactive = no such curve, though single readings can be large or run the other way. No potency is given beside an inconclusive call; the fits are too rough.
Experiment: Primary qHTS for delayed death inhibitors of the malarial parasite plastid, 48 hour incubation
Conditions: P. falciparum luciferase growth in erythrocytes; series mostly up to 28.7 µM; activity change, negative = inhibition: at the top concentration
Procedure, shortened: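 Read-out is firefly luciferase luminescence from an integrated reporter in P. falciparum, so falling signal marks reduced parasite growth. Infected erythrocytes were at 2% hematocrit and 0.1% parasitemia (final) in Albumax-supplemented RPMI 1640.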
% is set by controls: 0 for no effect and ±100 for the full control effect; potency is the fitted concentration of half-maximal effect; tags give direction and shape of the fitted curve.

SMILES	Potency	activity change, negative = inhibition
CCN(CC(=O)Nc1ccccc1C(F)(F)F)C(=O)C1CC(=O)N(Cc2ccccc2)C1 (centres undefined)	inconclusive [inhibitor, single point]	
COc1cc(/C=C2/C(=O)N(c3ccc([N+](=O)[O-])cc3)N=C2N2CCOCC2)ccc1O	inconclusive [inhibitor, partial curve, poor fit]	
CCC(=O)N(Cc1cccs1)C1CCOC(C)(C)C1 (centres undefined)	inconclusive [inhibitor, single point]	
CCCCN(C(=O)CSc1nnc(-c2ccccc2)o1)c1c(N)n(CCC)c(=O)[nH]c1=O	inconclusive [inhibitor, single point]	
Cc1ccn2c(-c3csc(NCc4ccccc4)n3)c(C)nc2c1	active: 13.1 µM	
C[C@@H]1O[C@@H](OC2C(O)C(OCCc3ccc(O)c(O)c3)OC(CO)C2OC(=O)/C=C/c2ccc(O)c(O)c2)[C@H](O)[C@H](O)[C@H]1O (some centres undefined)	inconclusive [inhibitor, single point]	
CC(=O)Nc1cccc(-c2nnc(-c3ccccc3)o2)c1		inactive: 27.6%
CCC(c1nnnn1C1CCCCC1)N1CCN(C(=O)c2ccco2)CC1 (centres undefined)	inconclusive [inhibitor, partial curve]	
CSc1ccc(C(=O)N2CCC(CCC(=O)NCc3ccc(F)cc3)CC2)cc1	inconclusive [inhibitor, single point]	
COc1ccc(C(=O)Oc2ccc(F)cc2C(=O)/C=C/c2ccc(OC)c(OC)c2)cc1		inactive: -26.7%
COC(=O)c1cc(NC(=S)Nc2cc(Cl)cc(Cl)c2)cc(C(=O)OC)c1	inconclusive [inhibitor, single point]	
CCc1cc(=O)oc2cc(C)cc(OCC(=O)NCc3cccnc3)c12		inactive: -1.26%
Cc1cccc(Cn2c(C)c(C)c3cc(C(=O)NCCN4CCOCC4)ccc32)c1	inconclusive [inhibitor, partial curve]	
COCCNC(=O)c1cccc(C)c1[N+](=O)[O-]		inactive: 28.2%
CCOC(=O)c1csc(NC(C)=O)n1		inactive: 82.4%
O=C(NCc1nc2ccccc2[nH]1)C1=C[C@@H](C2CCCCC2)C[C@@H](OCc2ccc(CO)cc2)O1	inconclusive [inhibitor, single point]	
CCn1c(C)c(C)c2cc(C(=O)NC3CCCCCC3)ccc21	inconclusive [inhibitor, single point]	
COc1cccc(C(c2sc3ncnn3c2O)N2CCN(C(=O)c3ccco3)CC2)c1 (centres undefined)	inconclusive [inhibitor, full curve, poor fit]	
O=C(COC(=O)c1cccc(S(=O)(=O)Nc2ccc(F)cc2)c1)NCCN1C(=O)CSC1=O	inconclusive [inhibitor, single point]	
O=C(CCCCCn1c(=O)[nH]c2ccsc2c1=O)NCc1cccs1	inconclusive [inhibitor, single point]	
O=c1c2nnn(Cc3ccccc3)c2ncn1C/C=C/c1ccccc1	inconclusive [inhibitor, partial curve]	
C/C(Cl)=C\Cn1c(O)c(N=O)c2ccccc21	inconclusive [inhibitor, single point]	
COc1cc2nc(N3CCN(C(=O)C4COc5ccccc5O4)CC3)nc(N)c2cc1OC (centres undefined)	active: 4.65 µM	

SMILES	Potency	activity change, negative = inhibition
CC(=O)Nc1ccc(OC(=O)c2ccccc2O)cc1		inactive: -2.7%
O=C(Nc1ccc(-n2cnnn2)cc1)c1cccc(S(=O)(=O)N2CCCC2)c1	inconclusive [inhibitor, single point]	
O=C1CC2(CCN(C(=O)COc3ccc(F)cc3)CC2)Oc2ccccc21		inactive: -9.25%
O=C(NC(=S)NNC(=O)c1ccccc1O)c1ccccc1	inconclusive [inhibitor, single point]	
CN(CCO)S(=O)(=O)c1ccc2c(c1)C(=NNC(N)=O)c1cc(S(=O)(=O)N(C)CCO)ccc1-2	inconclusive [inhibitor, full curve, poor fit]	
O=C(/C=C/c1ccccc1)NCCSCc1ccc(Cl)cc1	inconclusive [inhibitor, single point]	
CCCC(=O)N(c1ccc2oc(=O)sc2c1)S(=O)(=O)c1ccccc1	inconclusive [inhibitor, single point]	
CCCCCC(=O)Nc1cc(S(=O)(=O)N2CCOCC2)ccc1N1CCCC1		inactive: 9.88%
CCN1C(=O)N(S(=O)(=O)c2ccc(C)cc2)[C@@H](c2ccccc2)C(C(=O)OC)=C1C	inconclusive [inhibitor, single point]	
COc1ccccc1Nc1cc(C)nc2c(C)ccc([N+](=O)[O-])c12		inactive: -14.1%
C=CCNc1nc(Cl)nc(Nc2ccc(OC)cc2)n1	inconclusive [inhibitor, full curve, poor fit]	
O=C(Nc1ccc(F)cc1)C1CC2CCC1C2 (centres undefined)		inactive: 5.5%
Cc1ccc(N=C(NO)c2nonc2N)c(C)c1		inactive: 10.8%
CC1=NN(c2ccc(C)cc2)C(=O)/C1=C\C=C\c1ccccc1	active: 13.1 µM	
COc1ccc(-n2c3c(c(=O)[nH]c2=O)C(NS(=O)(=O)c2ccc(Cl)cc2)(C(F)(F)F)C(=O)N3)cc1 (centres undefined)	inconclusive [inhibitor, partial curve]	
O=C(COC(=O)Cc1cccc(C(F)(F)F)c1)Nc1ccccc1		inactive: 3.73%
Cc1cc(C)n(/N=C/c2cc([N+](=O)[O-])ccc2O)c(=O)c1	inconclusive [inhibitor, single point]	
CCCCNS(=O)(=O)c1ccc2nc(SCC(=O)Nc3sccc3C#N)[nH]c2c1	inconclusive [inhibitor, single point]	
Cc1nn(CC(=O)NC(=O)NC2CCCC(C)C2C)c(=O)c(C#N)c1C (centres undefined)	inconclusive [inhibitor, single point]	
O=C(NCCC1CCCCN1S(=O)(=O)c1ccccc1)C(=O)NCc1ccccc1 (centres undefined)		inactive: -21%
C=C1CC[C@H](O)C/C1=C/C=C1\CCC[C@]2(C)[C@@H]([C@H](C)CC[C@@H](O)C(C)(C)O)CC[C@@H]12	inconclusive [inhibitor, single point]	
CC1=NN(C(C#N)c2ccccc2C)C(C)(C)C1 (centres undefined)		inactive: -14.2% [at 5.75 µM]
Cc1csc(SCC(=O)NC(C)c2ccccc2)n1 (centres undefined)		inactive: 2.76%

SMILES	Potency	activity change, negative = inhibition
Cc1cccc(OCC(=O)NNc2c3ccccc3nc3ccccc23)c1	inconclusive [inhibitor, partial curve, poor fit]	
CCOC(=O)[C@H]1[C@H]2COc3ccc(Br)cc3[C@@H]2N2C(=O)c3cc(Br)ccc3NC(=O)[C@@]12C	inconclusive [inhibitor, single point]	
Cn1cccc1Cc1nnc(SCC(=O)Nc2ccc(F)cc2)n1CCc1ccccc1	inconclusive [inhibitor, single point]	
O=[N+]([O-])c1ccc(N2CCNCC2)cc1NCc1cccnc1	inconclusive [inhibitor, single point]	
CCN(CC)c1ccc(/C=N/NC(=O)Cc2cccs2)c(O)c1	inconclusive [inhibitor, single point]	
C=CCN(c1ccccc1)S(=O)(=O)c1cccc(C(=O)NC2CCN(Cc3ccccc3)CC2)c1	active: 10.4 µM	
CN(Cc1ncc[nH]1)C(=O)c1cc(COc2c(F)cccc2F)on1		inactive: 31.5%
CCOc1ccc(N2C(=O)C3CCCN3C2=S)cc1 (centres undefined)	inconclusive [inhibitor, single point]	
CN1CCN(c2ccc(S(=O)(=O)N3CCCCC3)cc2[N+](=O)[O-])CC1		inactive: 5.99%
COC(=O)c1ccc(NC(=O)CSc2nn3c(=O)c(C)nnc3s2)cc1	inconclusive [inhibitor, partial curve]	
O=C1CC2(CCN(C(=O)c3ccccc3Br)CC2)Oc2ccccc21	inconclusive [inhibitor, partial curve, poor fit]	
CC1=C(C(=O)Nc2cc(C(=O)N3CCN(c4cccc(C)c4)C(C)C3)ccc2C)SCCO1 (centres undefined)	inconclusive [inhibitor, single point]	
Cc1ccccc1S(=O)(=O)Oc1cccc2c(O)cccc12		inactive: 5.61%
CC(C)(C)c1ccc(SCCc2ccncc2)cc1	inconclusive [inhibitor, single point]	
COc1ccc(C(=O)CCN2CCN(c3ccccc3F)CC2)cc1		inactive: 48.5%
COc1cc(OC)cc(C(=O)OCC(=O)c2ccc(S(=O)(=O)N3CCCCC3)cc2)c1	inconclusive [inhibitor, partial curve]	
CCCC(C(=O)NC1CCCC1)N(C(=O)Cn1nnc(-c2ccc(C)o2)n1)c1ccccc1F (centres undefined)	inconclusive [inhibitor, partial curve]	
COc1cccc(-c2nc(C(N)=O)c3[nH]c(=O)n(-c4ccccc4)c3n2)c1OC	inconclusive [inhibitor, single point]	
CC1(C)Cc2c(C#N)c(NCCN3CCOCC3)nc(-c3ccccc3)c2CO1		inactive: -18.6%
CCOC(=O)C1(CCOc2ccccc2)CCN(Cc2cccc(OC)c2O)CC1	active: 0.586 µM	
O=C1C=C(/C=C/c2ccccc2)C[C@@H](c2ccc(F)cc2)C1	inconclusive [inhibitor, single point]	
O=C(CN1CCOCC1)NNC(=S)Nc1ccc(Cl)cc1		inactive: 4.75%
O=C(C1=C[C@@H](c2ccc(Br)cc2)C[C@@H](OCCCCO)O1)N1CCN(Cc2ccccc2)CC1	active: 8.28 µM	

Reference: PubChem BioAssay AID504832 (National Center for Advancing Translational Sciences (NCATS), 2011)
